Assay results from the RNAGym collection of RNA variant scans (doi:10.1093/nar/gkz1192).
The source gives no read counts; variants with many changes may rest on few reads.

B1: CPEB3 Ribozyme (parent)
chain: UAACAGGGGGCCACAGCAGAAGCGUUCACGUCGCAGCCCCUGUCAGAUUCUGGUGAAUCUGCGAAUUCUGCUGUAUAUCUC

Variants of: B1
Test: self-cleavage, relative activity (ratio to wild type); higher = more cleavage; in vitro, sequencing
Summary of the method: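 For each CPEB3 ribozyme variant, relative activity is its cleaved/total read fraction divided by the unmutated ribozyme's. Barcoded error-prone PCR libraries were transcribed by T7 RNA polymerase (5 hours, 37°C) and held in DNase I for 15 min before an EDTA stop, with cleavage occurring throughout. Template-switching reverse transcription and Illumina sequencing were used to read the RNAs. A 5-read minimum applied, and results are the mean of three batches.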
UAACAGGGGGCCACAGCAGAAGCGUUCACGUCGCAGCCCCAGUCAGAUUCCGGUGAAACUGCGAAUUCUGCUGUAUAUCUC [U41A U51C U58A] gave a self-cleavage of 0.09.
UAACAGGGGGCCACAGCAGAAGCGUUCACGUCGCAGCCCCAGUCAGAUUCUGGUGAAUCUGCGAACUCGGCUGUAUAUCUC [U41A U66C U69G] gave a self-cleavage of 0.08.
In the case of UAACAGGGGGCCACAGCAGAAGCGUUCACGUCGCAGCCCCAGUCAGAUUCUGGUGAAUCUGCGAAUUCCGCAGUAUAUCCC [U41A U69C U72A U80C], the self-cleavage is reported as 0.16.
Variant UAACAGGGGGCCACAGCAGAAGCGUUCACGUCGCAGCCCCAGUCAGAUUCAGGUGACUCUGCGAAUUCUGCUGUAUAUCUC [U41A U51A A57C] has a self-cleavage of 0.18.
Work on UAACAGGGGGCCACAGCAGAAGCGUUCACGUCGCAGCCCCAGUCAGAUUCUGGCGAAUCUGCGAAUUCUGCUGUACAUCUC [U41A U54C U76C] yielded a self-cleavage of 0.12.
UAACAGGGGGCCACAGCAGAAGCGUUCACGUCGCAGCCCCAGUCAGAUUCUGGUGAAUCCGCGAGUUCUGCUGUAUACCUC [U41A U60C A65G U78C] showed a self-cleavage of 0.1.
In the case of UAACAGGGGGCCACAGCAGAAGCGUUCACGUCGCAGCCCCAGUCAGAUUCCGGUGAAUCCGCGAAUUCUGCCGUAUACCCC [U41A U51C U60C U72C U78C U80C], the self-cleavage is reported as 0.04.
With UAACAGGGGGCCACAGCAGAAGCGUUCACGUCGCAGCCCCAGUCAGAUCCUGGUGAAUCUGCGAAUUCUGCUGUAUAUCUA [U41A U49C C81A] the self-cleavage was 0.19.
UAACAGGGGGCCACAGCAGAAGCGUUCACGUCGCAGCCCCAGUCAGAUUCAGGCGAAUCUGCGAGUUCUGCUGAAUAUCCC [U41A U51A U54C A65G U74A U80C] showed a self-cleavage of 0.16.
Variant UAACAGGGGGCCACAGCAGAAGCGUUCACGUCGCAGCCCCAGUCAGAUCCUGGUGGAUCUGCGAAUUCUGCUGUAUAUCCC [U41A U49C A56G U80C] has a self-cleavage of 0.25.
Variant UAACAGGGGGCCACAGCAGAAGCGUUCACGUCGCAGCCCCAGUCAGAUUCUGGUGAACCUGCGAAUUCAGCUGUAUAUCUC [U41A U58C U69A] has a self-cleavage of 0.09.
For UAACAGGGGGCCACAGCAGAAGCGUUCACGUCGCAGCCCCAGUCAGAUUCCGGUGAAUCUGCGAAUUCUGCUGUAAAUCUC [U41A U51C U76A], the self-cleavage was 0.14.
For UAACAGGGGGCCACAGCAGAAGCGUUCACGUCGCAGCCCCAGUCAGAUUCGGGUGAAUCUGCGAAUACUGCUGUAUAUCUC [U41A U51G U67A], the self-cleavage was 0.11.
Work on UAACAGGGGGCCACAGCAGAAGCGUUCACGUCGCAGCCCCAGUCAGAUUCCGGCGAAUCUGCGAAUUCUGCUGCAUAUCUC [U41A U51C U54C U74C] yielded a self-cleavage of 0.36.
For UAACAGGGGGCCACAGCAGAAGCGUUCACGUCGCAGCCCCAGUCAGAUUCUGGCGAAUCCGCGAAUUCUGCUGUAUAUCCC [U41A U54C U60C U80C], the self-cleavage was 0.13.
UAACAGGGGGCCACAGCAGAAGCGUUCACGUCGCAGCCCCAGUCAGAUUCUGGUGAAUCAGCGGAUUCUGCUGGAUAUCUC [U41A U60A A64G U74G] gave a self-cleavage of 0.1.
Work on UAACAGGGGGCCACAGCAGAAGCGUUCACGUCGCAGCCCCAGUCAGAUCCUGGUGGAUCUGCGAAUCCUGCUGUAUAUCCC [U41A U49C A56G U67C U80C] yielded a self-cleavage of 0.31.
UAACAGGGGGCCACAGCAGAAGCGUUCACGUCGCAGCCCCAGUCAGAUUCAGGCGAAUCUGCGAAUUCUGCCGUAUAUCUC [U41A U51A U54C U72C] showed a self-cleavage of 0.14.
Variant UAACAGGGGGCCACAGCAGAAGCGUUCACGUCGCAGCCCCAGUCAGAUUCAGGUGAAUCUGCGAAUUCCGCUGUAUAUCUC [U41A U51A U69C] has a self-cleavage of 0.25.
UAACAGGGGGCCACAGCAGAAGCGUUCACGUCGCAGCCCCAGUCAGAUUCUGGUGAAUCUGCGAAUUCCGCUGUAUAUCCC [U41A U69C U80C] gave a self-cleavage of 0.08.
With UAACAGGGGGCCACAGCAGAAGCGUUCACGUCGCAGCCCCAGUCAGACUCCGGUAAAUCUGCGAAUUCUGCUGUAUAUCUC [U41A U48C U51C G55A] the self-cleavage was 0.09.
With UAACAGGGGGCCACAGCAGAAGCGUUCACGUCGCAGCCCCAGUCAGAUUCUGGUGAAUCUGCGAAUGCUGCUGUAUUUCUC [U41A U67G A77U] the self-cleavage was 0.17.
In the case of UAACAGGGGGCCACAGCAGAAGCGUUCACGUCGCAGCCCCAGUCAGAUCCAGGUGAAUCUGCGAAUUCUGCUGUAUACCUC [U41A U49C U51A U78C], the self-cleavage is reported as 0.22.
In the case of UAACAGGGGGCCACAGCAGAAGCGUUCACGUCGCAGCCCCAGUCAGAUACUGGUGAAUCUGCGGAUUCUGCAGUAUAACUC [U41A U49A A64G U72A U78A], the self-cleavage is reported as 0.14.
For UAACAGGGGGCCACAGCAGAAGCGUUCACGUCGCAGCCCCAGUCAGAUACUGGCGGAUCUGCGUAUUCUGUUGUAUACCUC [U41A U49A U54C A56G A64U C71U U78C], the self-cleavage was 0.16.
With UAACAGGGGGCCACAGCAGAAGCGUUCACGUCGCAGCCCCAGUCAGAUGCUGCUGAAUCCGCGAAUUCCGCUGUAUAUCUC [U41A U49G G53C U60C U69C] the self-cleavage was 0.07.
For UAACAGGGGGCCACAGCAGAAGCGUUCACGUCGCAGCCCCAGUCAGAUUCUGGUGAACCUGCGAAUUCUGCUGCAUAUCUC [U41A U58C U74C], the self-cleavage was 0.36.
For UAACAGGGGGCCACAGCAGAAGCGUUCACGUCGCAGCCCCAGUCAGAUUCUGGUGAAUCCGCGGAUUCUGCUGUAUAUCUC [U41A U60C A64G], the self-cleavage was 0.32.
Variant UAACAGGGGGCCACAGCAGAAGCGUUCACGUCGCAGCCCCAGUCAGAUGCUGGUGAAUCUGCGAAUUCUGCCGUAUAUCUC [U41A U49G U72C] has a self-cleavage of 0.06.
UAACAGGGGGCCACAGCAGAAGCGUUCACGUCGCAGCCCCAGUCAGACUCUGGUGAAUCUGCGAAUUCGGCUGUAUAUCUC [U41A U48C U69G] gave a self-cleavage of 0.12.
In the case of UAACAGGGGGCCACAGCAGAAGCGUUCACGUCGCAGCCCCAGUCAGAUUCAGGUGAGUCUGCGAACUCUGCUGUAUAUCCC [U41A U51A A57G U66C U80C], the self-cleavage is reported as 0.08.
UAACAGGGGGCCACAGCAGAAGCGUUCACGUCGCAGCCCCAGUCAGAUCCUGGUGAAUCUACGAACUCCGCUGUAUAUCUC [U41A U49C G61A U66C U69C] gave a self-cleavage of 0.07.
UAACAGGGGGCCACAGCAGAAGCGUUCACGUCGCAGCCCCAGUCAGAUUCCGGUGAGUCUGCGAACUCUGCUGUAUAUCUC [U41A U51C A57G U66C] gave a self-cleavage of 0.07.
For UAACAGGGGGCCACAGCAGAAGCGUUCACGUCGCAGCCCCAGUCAGAUACUGGUGAAUCUGCGAAUACUGCCGUAUACCUC [U41A U49A U67A U72C U78C], the self-cleavage was 0.08.
